# Measurements taken from PubChem BioAssay AID624296 (National Center for Advancing Translational Sciences (NCATS), 2012).
# In all, about 350,000 compounds went through this assay and about 9,900 (2.8%) were called active. Inconclusive means that the source gave no clear call. Such entries were picked first, then a sample of the others. The call rests on the fitted dose curve; in most records, active means well fitted activation curve with a large enough effect; inconclusive means small, poorly fitted or top-dose-only effect; inactive means no such curve, though single readings can be large or run the other way. Potencies of inconclusive entries are left out as doubtful fits.
# Assay: A quantitative high throughput screen for small molecules that induce DNA re-replication in MCF 10a normal breast cells. Further: nearly all actives have a fitted effect of over 50% in size.
# Conditions: MCF 10A DNA re-replication, Hoechst nuclear intensity, 48 h; series mostly up to 46.1 µM
# Potency means the concentration at half of the fitted maximal effect; tags describe the fitted curve by direction and shape.
row,Structure (SMILES),Potency
1,CC1(C)C2CCC1(CS(=O)(=O)Nc1ccc(S(=O)(=O)NC3CCCCC3)cc1)C(=O)C2 (centres undefined),"inconclusive [activator, partial curve]"
2,Cn1cc(CN2CCC(n3nccc3NC(=O)c3ccccc3Cl)CC2)c2ccccc21,"inconclusive [activator, full curve, poor fit]"
3,C/C(N)=C(/C#N)C(=O)CSc1nnc(-c2ccccc2Br)o1,inactive
4,O=c1[nH]c(-c2ccc(F)cc2)nc2c1sc(=S)n2-c1ccccc1,"inconclusive [activator, single point]"
5,CSc1nc(N)c(C#N)c(-c2ccccc2Cl)c1C#N,"inconclusive [activator, partial curve, poor fit]"
6,Fc1ccc(-c2nn(-c3ccccc3)cc2CNCc2ccccc2)cc1,"inconclusive [activator, single point]"
7,CCCCCOC(=O)c1cc(=O)[nH]c2ccccc12,"inconclusive [activator, single point]"
8,CC(Nc1ccccc1CO)C(=O)Nc1cccc(Cl)c1Cl (centres undefined),"inconclusive [activator, single point]"
9,Cc1ccc(C)c(-c2nnc(NC(=O)c3ccc([N+](=O)[O-])o3)o2)c1,"inconclusive [activator, single point]"
10,COC(=O)c1cc(=O)n(Cc2ccc(F)cc2)c(=NCc2ccc(F)cc2)s1,"inconclusive [activator, partial curve, poor fit]"
11,N#CC1=C(N)Oc2cc(N)ccc2C1c1ccccc1F (centres undefined),active: 18.4 µM
12,COC(=O)c1ccc(OCC2c3cc(OC)c(OC)cc3CCN2C(=O)C2CC2)cc1 (centres undefined),"inconclusive [activator, partial curve, poor fit]"
13,O=C(N/N=C/c1ccc([N+](=O)[O-])o1)c1cc2c(ccc3ccccc32)o1,active: 2.59 µM
14,O=C(c1cn(-c2ccccc2)nc1-c1ccc(F)cc1)N1CCCCC1,"inconclusive [activator, partial curve, poor fit]"
15,Cc1ccc(N(Cc2ccccc2)C(=O)c2cccc(S(=O)(=O)N3CCN(C)CC3)c2)cc1,inactive
16,O=C(Cc1ccccc1)NC(=S)Nc1ccc2oc(-c3ccccc3F)nc2c1,inactive
17,c1ccc(C2OC3c4cccc5cccc(c45)C3N2c2ccccc2)cc1 (centres undefined),active: 18.4 µM
18,COc1ccc(NS(=O)(=O)c2ccc3c(c2)N(C(C)=O)CC(C)S3)c(OC)c1 (centres undefined),inactive
19,CC(=O)N1CCc2c(sc(NC(=O)c3ccc4c(c3)OCCO4)c2C#N)C1,active: 14.6 µM
